# Laboratory results: PubChem BioAssay AID504466 (National Center for Advancing Translational Sciences (NCATS), 2011)
# The campaign covered roughly 330,000 compounds. About 4,200 (1.3%) were called active. The shares of active, inactive and inconclusive entries below differ from those in the screen. Calls come from the whole dose curve; as a rule, active = well fitted activation curve with a large enough effect; inconclusive = small, poorly fitted or top-dose-only effect; inactive = no such curve, though single readings can be large or run the other way. A potency beside an inconclusive call is a rough fit, not a confirmed value.
# Assay: qHTS screen for small molecules that induce genotoxicity in human embryonic kidney (HEK293T) cells expressing luciferase-tagged ELG1; note: nearly all actives have a fitted effect of over 60% in size; for activity change, positive = activation: % of control where 0% means no effect
# Details: HEK293T ELG1-luciferase reporter, luminescence, 16 h; series mostly up to 46 µM; activity change, positive = activation: at the top concentration
# Outline: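 HEK293T cells expressing luciferase-tagged ELG1 were treated with compound or DMSO for 16 hr at 37°C. Luciferase activity was then read after 30 min with ONE-Glo at room temperature; rising signal flags genetic stress.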
# Potency is the fitted concentration of half-maximal effect; tags give direction and shape of the fitted curve.
SMILES,Potency,"activity change, positive = activation"
O=C1CCNc2ccc(-c3ccccc3)cc21,"inconclusive: 32.6 µM [activator, partial curve, poor fit]",–
CCOC(=O)c1c(C)oc2c1c(C(c1cccnc1)N1CCCCC1)c(O)c1ccccc12 (stereo not drawn),"inconclusive: 10.3 µM [activator, partial curve]",–
CCN(CC)S(=O)(=O)c1cc(NC(=O)C(C)N2CCc3ccccc32)ccc1C (stereo not drawn),–,inactive: -9.3%
CC1=C/C(=C/N(C)c2ccccc2)C(=O)S1,"inconclusive: 23.1 µM [activator, partial curve, poor fit]",–
CCCCNS(=O)(=O)c1ccc2nc(-c3cccnc3)cc(C(=O)NC(C)CC)c2c1 (stereo not drawn),"inconclusive: 29.1 µM [activator, partial curve, poor fit]",–
CC(NC(=O)C(=O)N/N=C/c1ccc(Cl)cc1)c1ccccc1 (stereo not drawn),"inconclusive: 23.1 µM [activator, single point]",–
COCCCNC(=O)Nc1ccc(Br)cc1Cl,"inconclusive: 18.4 µM [activator, partial curve]",–
COc1ccc(/C(N)=N/OC(=O)CSc2ccccc2)cc1,"inconclusive: 4.61 µM [activator, partial curve, poor fit]",–
CCOc1ccccc1C(=O)N/N=C/c1cccc2cccnc12,–,inactive: 0.141%
CCOC(=O)c1oc2cccc(O)c2c1C,"inconclusive: 14.6 µM [activator, partial curve]",–
O=C(NCCc1ccccc1)c1ccc(NCC2CCCO2)c([N+](=O)[O-])c1 (stereo not drawn),"inconclusive: 29.1 µM [activator, partial curve, poor fit]",–
Cc1ccc(C(=O)NCC(=O)N2CCCCCC2)cc1,"inconclusive: 20.6 µM [activator, partial curve, poor fit]",–
O=C(NNC(=O)c1ccc(Cl)cc1Cl)c1cccs1,"inconclusive: 16.4 µM [activator, partial curve]",–
Cc1ccc(-c2cc(C(=O)NCc3cccs3)no2)cc1,"inconclusive: 4.61 µM [activator, full curve]",–
COc1ccc(CCNC(=O)[C@H](CC(C)C)NC(=O)N2CCn3c2nc2ccccc23)cc1OC,–,inactive: -0.465%
Cc1cccc(-n2ncc3c(NCc4cccs4)ncnc32)c1,"inconclusive: 13 µM [activator, partial curve, poor fit]",–
Cc1cc(C(=O)NC2CCCN(Cc3ccc(Cl)cc3)C2)no1 (stereo not drawn),–,inactive: -10%
O=C(Nc1ccccc1F)c1ccc(CSc2ccccc2)o1,"inconclusive: 23.1 µM [activator, partial curve, poor fit]",–
COc1ccc(CNC(=O)C/C(C)=N/NC(=O)COc2cccc(C)c2)cc1,–,inactive: 5.69%
Cc1nn2cnnc2c(C)c1Cc1ccc(Cl)cc1,–,inactive: -2.93%
O=C(CNC(=O)c1ccc(F)cc1)c1ccc(Cl)cc1,"inconclusive: 1.83 µM [activator, full curve, poor fit]",–
Cc1cccc(NC(=O)c2ccc([N+](=O)[O-])cc2Cl)n1,–,inactive: -0.562%
Clc1ccc(-c2cc(CSc3ccccc3)on2)cc1,"inconclusive: 7.31 µM [activator, partial curve]",–
O=C(Nc1ccc(Cl)cc1)C(Cl)C(=O)c1ccccc1 (stereo not drawn),"inconclusive: 20.6 µM [activator, single point]",–
Cc1ccc(C)c(NC(=O)c2cc3ccccn3n2)c1,active: 9.2 µM,–

SMILES,Potency,"activity change, positive = activation"
Cc1cnc(NC(=O)COc2ccccc2Cl)s1,"inconclusive: 0.164 µM [activator, partial curve]",–
O=C(N=Nc1c(O)n(Cc2ccccc2)c2ccccc12)c1ccc(O)cc1,"inconclusive: 6.51 µM [activator, single point]",–
Cc1sc2nc(-c3ccccn3)[nH]c(=O)c2c1-c1ccccc1,"inconclusive: 18.3 µM [activator, partial curve, poor fit]",–
CC(=O)Nc1cccc(OCC(=O)Nc2ccc(F)cc2)c1,–,inactive: 5.22%
CN(C)c1ccc(-c2nnn(Cc3ccccc3Br)n2)cc1,"inconclusive: 12.6 µM [activator, partial curve, poor fit]",–
CCOC(=O)c1c(C)[nH]c(C(=O)COC(=O)COc2ccc(OC)cc2)c1C,–,inactive: 0.884%
O=C(/C=C/c1cccnc1)c1cccc(O)c1,"inconclusive: 31.6 µM [activator, single point]",–
CCOc1ccc(Nc2nc(Cc3nnc(SCC(=O)c4ccc(C)c(C)c4)o3)cs2)cc1,–,inactive: -17.1%
O=C(CN1CCOCC1)Nc1ccc(C2CCCCC2)cc1,"inconclusive: 14.6 µM [activator, partial curve]",–
CC(NC(=O)NC(=O)c1ccc(Cl)cc1Cl)C1CC1 (stereo not drawn),"inconclusive: 23.1 µM [activator, partial curve, poor fit]",–
Cc1ccc(NC(=O)c2onc(C)c2Cl)cc1,active: 16.4 µM,–
COc1ccc(C(=O)O/N=C(\N)c2cccc(C)c2)cc1OC,"inconclusive: 20.6 µM [activator, single point]",–
CCN(CC)CCNC(=O)c1cc2c(=O)n(CC)c3ccccc3c2s1,"inconclusive: 10.3 µM [activator, partial curve, poor fit]",–
O=C(NCCc1cccc(Cl)c1)c1ccc2c(c1)OCO2,active: 2.59 µM,–
CCC(=O)Nc1ccc(-c2csc(C)n2)cc1,"inconclusive: 20.6 µM [activator, partial curve, poor fit]",–
CCOc1cccc(C(=O)NC(=S)Nc2ccc3c(c2)OCCO3)c1,"inconclusive: 4.61 µM [activator, full curve, poor fit]",–
COc1ccc(C(O)Cn2cc([N+](=O)[O-])nc2C)cc1 (stereo not drawn),–,inactive: -2.13%
CCOC(=O)c1c(C)c(C)n(Cc2cccc(OC)c2OC)c1C,"inconclusive: 29.1 µM [activator, partial curve, poor fit]",–
COc1cc(Cl)ccc1OCc1cc(C(=O)NC2CCc3ccccc32)no1 (stereo not drawn),–,inactive: 4.33%
O=C(CSc1nnc(-c2ccccc2)o1)Oc1ccc(Br)cc1,–,inactive: -6.12%
Oc1ccc(N=Nc2n[nH]c(-c3ccccc3)n2)cc1,active: 8.2 µM,–
Cc1c(C(=O)Nc2ccccn2)oc2ccccc12,"inconclusive: 9.2 µM [activator, partial curve]",–
CC1CCN(C(=O)c2cc(-c3ccc4c(c3)OCO4)on2)CC1,active: 2.91 µM,–
Cc1sc2nc3c4ccccc4c(NCc4ccco4)nn3c(=O)c2c1C,active: 7.08 µM,–
CC/C(=N\NC(=O)c1c[nH]c2ccccc12)c1cccs1,"inconclusive: 20.6 µM [activator, partial curve, poor fit]",–

SMILES,Potency,"activity change, positive = activation"
Cc1ccc(-c2cc(=O)c3cc(C)ccc3[nH]2)cc1,"inconclusive: 1.84 µM [activator, full curve]",–
O=c1c2ccccc2nc2ccccn12,"inconclusive: 20.6 µM [activator, partial curve, poor fit]",–
CC(=O)c1ccc(-n2c(C)c(C(C)=O)c3cc(O)ccc32)cc1,–,inactive: -10.9%
COc1ccc(N2C(=O)[C@@H]3[C@H](C2=O)[C@H]2c4ccccc4C=CN2[C@@H]3C(C)=O)cc1,–,inactive: 1.08%
Nc1c(C(=O)c2ccccc2)oc2ccccc12,"inconclusive: 20.6 µM [activator, single point]",–
Cc1cccc(N2CCN(C(=O)c3nn(C)c4c3CS(=O)(=O)c3ccccc3-4)CC2C)c1 (stereo not drawn),–,inactive: -9.38%
CCOC(=O)c1sc(=NC(=O)c2ccc(OC)c(OC)c2)n(C)c1C,–,inactive: 11.1%
O=C(CNC(=O)c1ccc(Cl)c([N+](=O)[O-])c1)OCN1C(=O)c2ccccc2C1=O,–,inactive: 2.23%
COc1cccc(/C=N/Nc2ncc(C(F)(F)F)cc2Cl)c1O,"inconclusive: 20.6 µM [activator, single point]",–
COCCn1c(SCC(=O)N2CCCCCC2)nc2c(c1=O)SCC2,"inconclusive: 32.6 µM [activator, partial curve, poor fit]",–
Cc1cnc(NC(=O)/C=C/c2ccc(Br)o2)s1,"inconclusive: 20.6 µM [activator, partial curve, poor fit]",–
Cn1cccc1/C=C1\SC(=Nc2ccc(O)cc2)NC1=O,active: 16.4 µM,–
Cc1ccnc(NC(=O)Nc2ccc(F)cc2)c1,"inconclusive: 2.31 µM [activator, full curve]",–
CN(CC(=O)Nc1ccc(Cl)cc1)C(=O)CCc1nc2sc3c(c2c(=O)[nH]1)CCCC3,"inconclusive: 23.1 µM [activator, partial curve, poor fit]",–
CCOC(=O)c1[nH]c2ccc(C)cc2c1N,"inconclusive: 20.6 µM [activator, partial curve]",–
O=C(Nc1ccc(-c2nc3ccccc3o2)cc1)C1CCCO1 (stereo not drawn),"inconclusive: 0.461 µM [activator, full curve, poor fit]",–
Cc1c(/C=N\NC(=O)c2cccc(F)c2)cnn1C,–,inactive: 1.45%
O=C(Nc1ccc(F)cc1)c1nc[nH]c1C(=O)Nc1ccc([N+](=O)[O-])cc1,"inconclusive: 29.1 µM [activator, partial curve, poor fit]",–
CC/C(=N\NC(=O)OC)c1ccc(OC(F)F)cc1,–,inactive: 4.42%
C=CCn1c(SC(C)C(=O)NCc2ccc3c(c2)OCO3)nc2scc(-c3ccccc3)c2c1=O (stereo not drawn),–,inactive: -4.58%
COc1cccc(C2CC(c3ccc(C)cc3)n3ncnc3N2)c1 (stereo not drawn),"inconclusive: 32.6 µM [activator, partial curve, poor fit]",–
N#CC1=C(N)Oc2cc(N)ccc2C1c1cccc(Br)c1 (stereo not drawn),"inconclusive: 9.2 µM [activator, partial curve]",–
COc1ccc(C(=O)Cc2ccc(OC)c(OC)c2)cc1,"inconclusive: 10 µM [activator, partial curve]",–
